Test results published in the supplement of paper PMC8728848.
The list shows a part of the results.

Experiments:
Experiment in all cases: glycan array binding signal (z-score within array); higher = stronger binding
Conditions in all cases: glycan notation: IUPAC condensed, linker removed
[1] = target: Fuc(a1-2)[GalNAc(a1-3)]Gal(b1-3)GalNAc(b1-3)Gal(a1-4)Gal(b1-4)Glc
How it was run: (§1)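 Glycan array binding is given as a within-array Z-score, which can be read as non-binding when negative. The arrays, 3228 of them, came from the Consortium for Functional Glycomics database and were retained only where the protein sequence was available. Z-scores were averaged across arrays of the same protein sequence at different concentrations or buffers and across linkers.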

[2] = target: Fuc(a1-2)[GalNAc(a1-3)]Gal(b1-3)GlcNAc
How it was run: as §1

[3] = target: Fuc(a1-2)[GalNAc(a1-3)]Gal(b1-3)GlcNAc(b1-2)Man(a1-3)[Fuc(a1-2)[GalNAc(a1-3)]Gal(b1-3)GlcNAc(b1-2)Man(a1-6)]Man(b1-4)GlcNAc(b1-4)GlcNAc
How it was run: as §1

[4] = target: Fuc(a1-2)[GalNAc(a1-3)]Gal(b1-3)GlcNAc(b1-2)Man(a1-3)[Fuc(a1-2)[GalNAc(a1-3)]Gal(b1-3)GlcNAc(b1-2)Man(a1-6)]Man(b1-4)GlcNAc(b1-4)[Fuc(a1-6)]GlcNAc
How it was run: as §1

[5] = target: Fuc(a1-2)[GalNAc(a1-3)]Gal(b1-3)GlcNAc(b1-3)Gal(b1-4)Glc
How it was run: as §1

[6] = target: Fuc(a1-2)[GalNAc(a1-3)]Gal(b1-3)GlcNAc(b1-3)GalNAc
How it was run: as §1

[7] = target: Fuc(a1-2)[GalNAc(a1-3)]Gal(b1-3)GlcNAc(b1-6)GalNAc
How it was run: as §1

[8] = target: Fuc(a1-2)[GalNAc(a1-3)]Gal(b1-3)[Fuc(a1-4)]GlcNAc(b1-3)Gal(b1-4)Glc
How it was run: as §1

[9] = target: Fuc(a1-2)[GalNAc(a1-3)]Gal(b1-4)Glc
How it was run: as §1

[10] = target: Fuc(a1-2)[GalNAc(a1-3)]Gal(b1-4)GlcNAc
How it was run: as §1

[11] = target: Fuc(a1-2)[GalNAc(a1-3)]Gal(b1-4)GlcNAc(b1-2)Man
How it was run: as §1

[12] = target: Fuc(a1-2)[GalNAc(a1-3)]Gal(b1-4)GlcNAc(b1-2)Man(a1-3)[Fuc(a1-2)[GalNAc(a1-3)]Gal(b1-4)GlcNAc(b1-2)Man(a1-6)]Man(b1-4)GlcNAc(b1-4)GlcNAc
How it was run: as §1

[13] = target: Fuc(a1-2)[GalNAc(a1-3)]Gal(b1-4)GlcNAc(b1-2)Man(a1-3)[Fuc(a1-2)[GalNAc(a1-3)]Gal(b1-4)GlcNAc(b1-2)Man(a1-6)]Man(b1-4)GlcNAc(b1-4)[Fuc(a1-6)]GlcNAc
How it was run: as §1

[14] = target: Fuc(a1-2)[GalNAc(a1-3)]Gal(b1-4)GlcNAc(b1-3)Gal(b1-4)GlcNAc
How it was run: as §1

[15] = target: Fuc(a1-2)[GalNAc(a1-3)]Gal(b1-4)GlcNAc(b1-3)Gal(b1-4)GlcNAc(b1-3)Gal(b1-4)GlcNAc
How it was run: as §1

[16] = target: Fuc(a1-2)[GalNAc(a1-3)]Gal(b1-4)GlcNAc(b1-3)GalNAc
How it was run: as §1

[17] = target: Fuc(a1-2)[GalNAc(a1-3)]Gal(b1-4)GlcNAc(b1-3)[Fuc(a1-2)[GalNAc(a1-3)]Gal(b1-4)GlcNAc(b1-6)]GalNAc
How it was run: as §1

[18] = target: Fuc(a1-2)[GalNAc(a1-3)]Gal(b1-4)GlcNAc(b1-6)GalNAc
How it was run: as §1

[19] = target: Fuc(a1-2)[GalNAc(a1-3)]Gal(b1-4)[Fuc(a1-3)]GlcNAc
How it was run: as §1

[20] = target: Fuc(a1-2)[GalNAc(a1-3)]Gal(b1-4)[Fuc(a1-3)]GlcNAc(b1-3)GalNAc
How it was run: as §1

[21] = target: Fuc(a1-2)[GalNAc(a1-4)]Gal(b1-4)GlcNAc
How it was run: as §1

[22] = target: Fuc(a1-2)[GalNAc(b1-3)]Gal
How it was run: as §1

[23] = target: Fuc(a1-2)[Neu5Ac(bond)]Gal(b1-3)GlcNAc(b1-3)Gal(b1-4)Glc
How it was run: as §1

[24] = target: Fuc(a1-3)GlcNAc
How it was run: as §1

[25] = target: Fuc(a1-3)GlcNAc6S
How it was run: as §1

[26] = target: Fuc(a1-3)[3dGal(b1-4)]Glc
How it was run: as §1

[27] = target: Fuc(a1-3)[3dGal(b1-4)]GlcNAc(b1-3)Gal
How it was run: as §1

[28] = target: Fuc(a1-3)[Gal(b1-4)]Glc
How it was run: as §1

[29] = target: Fuc(a1-3)[Gal(b1-4)]Glc6S
How it was run: as §1

[30] = target: Fuc(a1-3)[Gal(b1-4)]GlcNAc
How it was run: as §1

[31] = target: Fuc(a1-3)[Gal(b1-4)]GlcNAc(b1-2)Man
How it was run: as §1

[32] = target: Fuc(a1-3)[Gal(b1-4)]GlcNAc(b1-2)Man(a1-3)[Fuc(a1-3)[Gal(b1-4)]GlcNAc(b1-2)Man(a1-6)]Man(b1-4)GlcNAc(b1-4)GlcNAc
How it was run: as §1

[33] = target: Fuc(a1-3)[Gal(b1-4)]GlcNAc(b1-2)Man(a1-3)[Fuc(a1-3)[Gal(b1-4)]GlcNAc(b1-2)Man(a1-6)]Man(b1-4)GlcNAc(b1-4)[Fuc(a1-6)]GlcNAc
How it was run: as §1

[34] = target: Fuc(a1-3)[Gal(b1-4)]GlcNAc(b1-3)Gal(b1-3)[Fuc(a1-4)]GlcNAc
How it was run: as §1

[35] = target: Fuc(a1-3)[Gal(b1-4)]GlcNAc(b1-3)Gal(b1-4)Glc
How it was run: as §1

[36] = target: Fuc(a1-3)[Gal(b1-4)]GlcNAc(b1-3)Gal(b1-4)[Fuc(a1-3)]Glc
How it was run: as §1

[37] = target: Fuc(a1-3)[Gal(b1-4)]GlcNAc(b1-3)Gal(b1-4)[Fuc(a1-3)]GlcNAc
How it was run: as §1

B1: PNA (Arachis hypogaea), P02872 (protein)
chain: MKPFCVFLTFFLLLAASSKKVDSAETVSFNFNSFSEGNPAINFQGDVTVLSNGNIQLTNLNKVNSVGRVLYAMPVRIWSSATGNVASFLTSFSFEMKDIKDYDPADGIIFFIAPEDTQIPAGSIGGGTLGVSDTKGAGHFVGVEFDTYSNSEYNDPPTDHVGIDVNSVDSVKTVPWNSVSGAVVKVTVIYDSSTKTLSVAVTNDNGDITTIAQVVDLKAKLPERVKFGFSASGSLGGRQIHLIRSWSFTSTLITTTRRSIDNNEKKIMNMASA
- glycan array binding signal (z-score) [1]: -0.375
- glycan array binding signal (z-score) [2]: -0.097
- glycan array binding signal (z-score) [3]: -0.159
- glycan array binding signal (z-score) [4]: -0.127
- glycan array binding signal (z-score) [5]: -0.195
- glycan array binding signal (z-score) [6]: -0.225
- glycan array binding signal (z-score) [7]: -0.28
- glycan array binding signal (z-score) [8]: -0.195
- glycan array binding signal (z-score) [9]: -0.167
- glycan array binding signal (z-score) [10]: -0.171
- glycan array binding signal (z-score) [11]: -0.252
- glycan array binding signal (z-score) [12]: -0.29
- glycan array binding signal (z-score) [13]: -0.229
- glycan array binding signal (z-score) [14]: -0.147
- glycan array binding signal (z-score) [15]: 0.074
- glycan array binding signal (z-score) [16]: -0.177
- glycan array binding signal (z-score) [17]: -0.289
- glycan array binding signal (z-score) [18]: -0.241
- glycan array binding signal (z-score) [19]: -0.123
- glycan array binding signal (z-score) [20]: -0.116
- glycan array binding signal (z-score) [21]: 0.129
- glycan array binding signal (z-score) [22]: -0.151
- glycan array binding signal (z-score) [23]: -0.195
- glycan array binding signal (z-score) [24]: -0.187
- glycan array binding signal (z-score) [25]: -0.195
- glycan array binding signal (z-score) [26]: -0.195
- glycan array binding signal (z-score) [27]: -0.195
- glycan array binding signal (z-score) [28]: -0.195
- glycan array binding signal (z-score) [29]: -0.06
- glycan array binding signal (z-score) [30]: -0.186
- glycan array binding signal (z-score) [31]: -0.225
- glycan array binding signal (z-score) [32]: -0.106
- glycan array binding signal (z-score) [33]: -0.162
- glycan array binding signal (z-score) [34]: -0.117
- glycan array binding signal (z-score) [35]: -0.195
- glycan array binding signal (z-score) [36]: -0.195
- glycan array binding signal (z-score) [37]: -0.21
